Measurements published in the supplement of paper PMC4967469.
By IC50 is meant the dose at which the fit gives 50% viability; a limit (>, <) means that the fit lies beyond the doses tested. The AUC spans the tested range (256-fold, ending at the top dose) of the same fit; values near 1 show little effect. For part of these data: Any top dose called inferred comes from the curve model; the source does not state it. For part of these data: Where an entry number is given, a second screen of the drug exists; the two often differ.

Key:
Assay in all cases: Viability of human cancer cell lines after 72 h of drug (GDSC screen)
BMS-708163 = compound: NC(=O)[C@@H](CCC(F)(F)F)N(Cc1ccc(-c2ncon2)cc1F)S(=O)(=O)c1ccc(Cl)cc1 [BMS-708163]; details: top dose 5 µM; screen: GDSC drug entry 1072; top dose inferred
Experimental: (§1)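 Human cancer cell lines in 384-well plates, medium with 10% serum, drug for 72 h over a 256-fold dose range (nine 2-fold or five 4-fold steps up to the top dose). Adherent lines were fixed and stained with the nucleic acid dye Syto60, suspension lines read with resazurin; signal relative to control wells, capped at 0 and 100%. One two-parameter sigmoid per drug and line, fitted in a mixed model over all curves with the slope shared within a line.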

KIN001-135 = compound: COc1cc2ncn(-c3cc(OCc4ccccc4S(C)(=O)=O)c(C#N)s3)c2cc1OC [KIN001-135]; details: top dose 5 µM; top dose inferred
Experimental: as §1

Parthenolide = compound: C=C1C(=O)O[C@H]2[C@H]1CC/C(C)=C/CC[C@@]1(C)O[C@@H]21 [Parthenolide]; details: top dose 5 µM
Experimental: as §1

PAC-1 = compound: C=CCc1cccc(/C=N/NC(=O)CN2CCN(Cc3ccccc3)CC2)c1O [PAC-1]; details: top dose 2.56 µM
Experimental: as §1

Row | Cell Line | AUC (BMS-708163) | IC50 (BMS-708163) | AUC (KIN001-135) | IC50 (KIN001-135) | AUC (Parthenolide) | IC50 (Parthenolide) | AUC (PAC-1) | IC50 (PAC-1)
1 | BL-41 (Burkitt lymphoma, suspension) | 0.99 | > 5 µM | 0.993 | > 5 µM | 0.877 | 3.05 µM | 0.84 | 1.19 µM
2 | BT-474 (breast, adherent) | 0.918 | > 5 µM | 0.979 | > 5 µM | 0.986 | > 5 µM | 0.957 | > 2.56 µM
3 | BV-173 (chronic myeloid leukaemia, suspension) | 0.989 | > 5 µM | 0.982 | > 5 µM | 0.956 | > 5 µM | 0.913 | > 2.56 µM
4 | Becker (glioma, adherent) | 0.979 | > 5 µM | 0.984 | > 5 µM | 0.972 | > 5 µM | 0.984 | > 2.56 µM
5 | C2BBe1 (large intestine, adherent) | 0.984 | > 5 µM | 0.986 | > 5 µM | 0.947 | > 5 µM | 0.911 | > 2.56 µM
6 | CA46 (Burkitt lymphoma, suspension) | 0.985 | > 5 µM | 0.981 | > 5 µM | 0.976 | > 5 µM | 0.879 | > 2.56 µM
7 | CESS (acute myeloid leukaemia, suspension) | 0.989 | > 5 µM | 0.991 | > 5 µM | 0.921 | > 5 µM | 0.808 | 1.1 µM
8 | CGTH-W-1 (thyroid, adherent) | 0.975 | > 5 µM | 0.986 | > 5 µM | 0.987 | > 5 µM | 0.977 | > 2.56 µM
9 | CHP-126 (neuroblastoma, suspension) | 0.984 | > 5 µM | 0.986 | > 5 µM | 0.881 | > 5 µM | 0.773 | 1.03 µM
10 | CL-11 (large intestine, adherent) | 0.981 | > 5 µM | 0.985 | > 5 µM | 0.983 | > 5 µM | 0.961 | > 2.56 µM
11 | CMK (acute myeloid leukaemia, suspension) | 0.989 | > 5 µM | 0.989 | > 5 µM | 0.886 | 4.06 µM | 0.85 | 1.51 µM
12 | COLO-320-HSR (large intestine, suspension) | 0.984 | > 5 µM | 0.991 | > 5 µM | 0.913 | > 5 µM | 0.949 | > 2.56 µM
13 | COLO-668 (small cell lung carcinoma, adherent) | 0.842 | 3.52 µM | 0.971 | > 5 µM | 0.989 | > 5 µM | 0.825 | 1.53 µM
14 | COLO-684 (endometrium, suspension) | 0.985 | > 5 µM | 0.984 | > 5 µM | 0.985 | > 5 µM | 0.882 | > 2.56 µM
15 | COLO-800 (melanoma, adherent) | 0.987 | > 5 µM | 0.97 | > 5 µM | 0.984 | > 5 µM | 0.984 | > 2.56 µM
16 | COLO-824 (breast, adherent) | 0.978 | > 5 µM | 0.972 | > 5 µM | 0.988 | > 5 µM | 0.897 | > 2.56 µM
17 | COLO-829 (melanoma, adherent) | 0.884 | > 5 µM | 0.974 | > 5 µM | 0.897 | > 5 µM | 0.971 | > 2.56 µM
18 | COR-L88 (small cell lung carcinoma, adherent) | 0.984 | > 5 µM | 0.978 | > 5 µM | 0.986 | > 5 µM | 0.696 | 0.639 µM
19 | COR-L95 (small cell lung carcinoma, adherent) | 0.987 | > 5 µM | 0.986 | > 5 µM | 0.92 | > 5 µM | 0.967 | > 2.56 µM
20 | COR-L279 (small cell lung carcinoma, suspension) | 0.991 | > 5 µM | 0.99 | > 5 µM | 0.974 | > 5 µM | 0.977 | > 2.56 µM
21 | CP66-MEL (melanoma, adherent) | 0.975 | > 5 µM | 0.985 | > 5 µM | 0.973 | > 5 µM | 0.981 | > 2.56 µM
22 | CPC-N (small cell lung carcinoma, suspension) | 0.971 | > 5 µM | 0.962 | > 5 µM | 0.985 | > 5 µM | 0.982 | > 2.56 µM
23 | CTB-1 (B-cell lymphoma, suspension) | 0.979 | > 5 µM | 0.959 | > 5 µM | 0.865 | > 5 µM | 0.819 | 2.21 µM
24 | CTV-1 (acute myeloid leukaemia, suspension) | 0.99 | > 5 µM | 0.99 | > 5 µM | 0.936 | > 5 µM | 0.821 | 1.11 µM
25 | CW-2 (large intestine, adherent) | 0.989 | > 5 µM | 0.986 | > 5 µM | 0.989 | > 5 µM | 0.988 | > 2.56 µM
26 | D-263MG (glioma, adherent) | 0.976 | > 5 µM | 0.971 | > 5 µM | 0.983 | > 5 µM | 0.95 | > 2.56 µM
27 | D-283MED (medulloblastoma, adherent) | 0.958 | > 5 µM | 0.985 | > 5 µM | 0.973 | > 5 µM | 0.99 | > 2.56 µM
28 | D-392MG (glioma, adherent) | 0.896 | > 5 µM | 0.976 | > 5 µM | 0.953 | > 5 µM | 0.977 | > 2.56 µM
29 | D-502MG (glioma, adherent) | 0.847 | > 5 µM | 0.974 | > 5 µM | 0.945 | > 5 µM | 0.937 | > 2.56 µM
30 | D-542MG (glioma, adherent) | 0.984 | > 5 µM | 0.97 | > 5 µM | 0.94 | > 5 µM | 0.877 | > 2.56 µM
